Reference: publication PMC4336329 (PLoS ONE, 2015)
Out of some 310,000 compounds screened, about 14,000 (4.5%) showed an effect of 50% or more. Effects have a minus sign here. This is one part of the list.
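Further: peak tail current of the secondary pulse compared with the same well before compound.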

The molecules below were run against human ether-à-go-go-related gene (hERG) potassium channel (human, UniProt Q12809) (assay: primary screen, population patch clamp on CHO cells stably expressing hERG).
Chain of human ether-à-go-go-related gene (hERG) potassium channel (Q12809 whole entry, looked up): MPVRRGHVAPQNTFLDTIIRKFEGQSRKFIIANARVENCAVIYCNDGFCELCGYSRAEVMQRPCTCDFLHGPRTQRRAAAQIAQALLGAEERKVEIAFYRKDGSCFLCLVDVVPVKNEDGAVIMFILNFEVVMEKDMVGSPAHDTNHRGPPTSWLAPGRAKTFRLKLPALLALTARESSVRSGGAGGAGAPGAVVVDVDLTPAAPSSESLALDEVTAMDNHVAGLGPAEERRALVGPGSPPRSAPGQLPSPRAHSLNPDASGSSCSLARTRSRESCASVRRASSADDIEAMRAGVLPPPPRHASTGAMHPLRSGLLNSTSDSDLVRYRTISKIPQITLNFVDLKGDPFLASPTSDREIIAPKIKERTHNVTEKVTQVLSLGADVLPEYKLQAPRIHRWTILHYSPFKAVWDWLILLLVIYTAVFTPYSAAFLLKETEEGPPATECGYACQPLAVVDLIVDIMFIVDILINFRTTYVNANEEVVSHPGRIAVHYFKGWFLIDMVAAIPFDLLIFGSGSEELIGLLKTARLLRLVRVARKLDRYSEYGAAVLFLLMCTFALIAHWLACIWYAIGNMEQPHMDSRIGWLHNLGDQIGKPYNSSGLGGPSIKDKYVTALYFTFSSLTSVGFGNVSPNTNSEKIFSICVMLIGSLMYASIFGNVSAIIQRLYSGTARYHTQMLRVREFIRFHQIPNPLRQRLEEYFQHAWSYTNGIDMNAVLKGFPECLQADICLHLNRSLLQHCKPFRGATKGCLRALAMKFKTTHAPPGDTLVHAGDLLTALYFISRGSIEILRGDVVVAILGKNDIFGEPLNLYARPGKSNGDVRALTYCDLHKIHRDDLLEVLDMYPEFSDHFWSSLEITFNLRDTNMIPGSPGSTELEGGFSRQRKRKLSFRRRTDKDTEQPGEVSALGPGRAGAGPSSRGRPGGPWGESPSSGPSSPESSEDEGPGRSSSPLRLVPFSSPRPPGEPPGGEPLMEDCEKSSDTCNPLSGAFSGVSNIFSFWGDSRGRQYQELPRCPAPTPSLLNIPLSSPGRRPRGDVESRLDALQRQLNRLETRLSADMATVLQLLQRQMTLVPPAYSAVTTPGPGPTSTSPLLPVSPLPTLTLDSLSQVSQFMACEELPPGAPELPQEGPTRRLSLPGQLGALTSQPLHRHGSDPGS
With `COc1ccc(CCNS(=O)(=O)c2ccc(OC)cc2)cc1` the “hERG current change (%, negative = inhibition) at 10uM” value was -20.1%.
`Cc1cccc(N(C(=O)CCC(=O)Nc2cccnc2)C(C(=O)NC2CCCC2)c2ccncc2)c1` (stereo not drawn) was tested, and the “hERG current change (%, negative = inhibition) at 10uM” value was 8.74%.
With `CC(=O)Nc1c(C(=O)N2CCN(c3ccccn3)CC2)cnn1-c1ccc(C)cc1` the “hERG current change (%, negative = inhibition) at 10uM” value was -3.36%.
`CCC(CC)C(=O)N1c2ccc(F)cc2CCC1C` (stereo not drawn) was tested, and the “hERG current change (%, negative = inhibition) at 10uM” value was -1.76%.
For `O=C(Cn1c(=O)oc2cccnc21)Nc1ccccc1Oc1ccc(Cl)cc1Cl`, the “hERG current change (%, negative = inhibition) at 10uM” value was 5.55%.
For `O=C(Cc1cccs1)NC(c1ccccc1)c1ccccc1`, the “hERG current change (%, negative = inhibition) at 10uM” value was 4.82%.
In the case of `CCc1oc2ccccc2c1C(=O)c1cc(Br)c(O)c(Br)c1`, the “hERG current change (%, negative = inhibition) at 10uM” value is reported as -17.3%.
`O=C1C=C(c2cccc(Cl)c2)C[C@@H](c2ccc(F)cc2)C1` was tested, and the “hERG current change (%, negative = inhibition) at 10uM” value was 3.62%.
For `COc1cccc(C(O)Cc2nc3ccccc3n2C)c1OC` (stereo not drawn), the “hERG current change (%, negative = inhibition) at 10uM” value was 23.7%.
In the case of `C=CCOc1ccccc1/C=N/O`, the “hERG current change (%, negative = inhibition) at 10uM” value is reported as -8.21%.
In the case of `Cc1ccc(-c2nc3ncccc3o2)cc1NC(=O)c1sc2ccccc2c1Cl`, the “hERG current change (%, negative = inhibition) at 10uM” value is reported as 5.72%.
`COc1ccc(C(=O)CC(Nc2ccc([N+](=O)[O-])cc2)c2ccc(OC)cc2)cc1` (stereo not drawn) was tested, and the “hERG current change (%, negative = inhibition) at 10uM” value was -8.47%.
In the case of `CCc1cc(C(=O)N2CCCC(N3CCN(c4cccc(C(F)(F)F)c4)CC3)C2)n(C)n1` (stereo not drawn), the “hERG current change (%, negative = inhibition) at 10uM” value is reported as -37.6%.
With `Cc1ccc(NC(=O)CCCn2nc(C)c3c(C)n(-c4ccccc4)nc3c2=O)cc1C` the “hERG current change (%, negative = inhibition) at 10uM” value was 24.6%.
In the case of `CCOC(=O)C1CCCN(Cc2ccc(OC)c(OCc3ccccc3)c2)C1` (stereo not drawn), the “hERG current change (%, negative = inhibition) at 10uM” value is reported as -46.1%.
In the case of `Cc1ccc(NC(=O)c2ccc(Br)o2)cc1S(=O)(=O)N(C)C`, the “hERG current change (%, negative = inhibition) at 10uM” value is reported as -54.7%.
With `CCOC(=O)C1(CCc2ccccc2)CCN(C(=O)CCn2cnnn2)CC1` the “hERG current change (%, negative = inhibition) at 10uM” value was -43.2%.
For `COc1ccc2c(Cl)c(C(=O)N/N=C/c3ccncc3)sc2c1`, the “hERG current change (%, negative = inhibition) at 10uM” value was 13.9%.
With `O=C(Cn1c(-c2ccccc2)c[n+]2ccsc12)c1ccc(Br)cc1.[Br-]` the “hERG current change (%, negative = inhibition) at 10uM” value was -32.2%.
In the case of `O=C(COc1ccc2c3c(c(=O)oc2c1)CCCC3)N1C[C@H]2C[C@@H](C1)c1cccc(=O)n1C2`, the “hERG current change (%, negative = inhibition) at 10uM” value is reported as -12.2%.
In the case of `CCOC(=O)c1ccc2[nH]c(C)c(C)c2c1`, the “hERG current change (%, negative = inhibition) at 10uM” value is reported as -2.18%.
For `CC(C)C[C@@H](CC#N)N1CCN(CCc2ccccc2)CCC1=O`, the “hERG current change (%, negative = inhibition) at 10uM” value was 2.01%.
With `C/C(=N\N=C(/N)SC1CC(=O)N(c2cccc(Cl)c2)C1=O)c1cccs1` (stereo not drawn) the “hERG current change (%, negative = inhibition) at 10uM” value was 15.9%.
`S=C(Nc1ccc2cn[nH]c2c1)Nc1ccccc1Cl` was tested, and the “hERG current change (%, negative = inhibition) at 10uM” value was -4.68%.
In the case of `CCOc1ccc2oc(=O)cc(CN3CCN(C(=O)c4ccco4)CC3)c2c1`, the “hERG current change (%, negative = inhibition) at 10uM” value is reported as -69.4%.
`O=C(COC(=O)CNC(=O)c1ccc(F)cc1)Nc1cccc(S(=O)(=O)N2CCCC2)c1` was tested, and the “hERG current change (%, negative = inhibition) at 10uM” value was -12%.
With `CCOC(=O)CSc1nnc(-c2cccc(Cl)c2)n1CC` the “hERG current change (%, negative = inhibition) at 10uM” value was -3.47%.
With `CC(=O)N1N=C(c2cccc([N+](=O)[O-])c2)OC1c1ccc(Br)cc1` (stereo not drawn) the “hERG current change (%, negative = inhibition) at 10uM” value was -7.59%.
In the case of `COc1ccccc1NC(=O)COC(=O)Cc1cccs1`, the “hERG current change (%, negative = inhibition) at 10uM” value is reported as 14.1%.
`Cc1cccc(C)c1OCCSc1nc2ccccc2n1CC(=O)O` was tested, and the “hERG current change (%, negative = inhibition) at 10uM” value was 8.02%.
`Cc1cc(C)n(S(=O)(=O)c2cccc([N+](=O)[O-])c2)n1` was tested, and the “hERG current change (%, negative = inhibition) at 10uM” value was 3.73%.
For `Brc1ccc(-c2noc(CCc3ccccc3)n2)cc1`, the “hERG current change (%, negative = inhibition) at 10uM” value was 5.43%.
In the case of `CSc1ccc(CN2CCC(N3CC(C)OC(C)C3)CC2)cc1.O=C(O)C(=O)O` (stereo not drawn), the “hERG current change (%, negative = inhibition) at 10uM” value is reported as -20.5%.
In the case of `COC(=O)c1ccccc1NC(=O)Cn1cnc([N+](=O)[O-])c1`, the “hERG current change (%, negative = inhibition) at 10uM” value is reported as 12.2%.
`Nc1cc(N)nc(SCc2ccccc2)n1` was tested, and the “hERG current change (%, negative = inhibition) at 10uM” value was -7.61%.
With `COc1cc(NC(=O)c2ccc(OC)c([N+](=O)[O-])c2)ccc1NC(=O)c1cccs1` the “hERG current change (%, negative = inhibition) at 10uM” value was -37.3%.
In the case of `COc1ccccc1NC(=O)c1c(Nc2ccccc2F)sc(C(=O)Nc2cccc(Cl)c2)c1N`, the “hERG current change (%, negative = inhibition) at 10uM” value is reported as 1.42%.
In the case of `CCN(CC)CC.COc1ccccc1-n1c(=S)[nH]c2c(sc(=S)n2-c2ccc(C)cc2C)c1=O`, the “hERG current change (%, negative = inhibition) at 10uM” value is reported as 20.4%.
For `Cc1ccc(C(=O)NN2CC(O)=C(c3nc(-c4cccc([N+](=O)[O-])c4)cs3)C2=N)cc1`, the “hERG current change (%, negative = inhibition) at 10uM” value was 27.6%.
In the case of `CCOc1ccccc1NC(=O)C1CCN(S(=O)(=O)c2c(C)nn(C)c2C)CC1`, the “hERG current change (%, negative = inhibition) at 10uM” value is reported as -4.45%.
In the case of `CCCN(CCC)CCCNC(=O)c1cn(CC)c2ccc(S(=O)(=O)N3CCOCC3)cc2c1=O`, the “hERG current change (%, negative = inhibition) at 10uM” value is reported as 12.8%.
`CC(C)c1cc(C(=O)N2CCN(C(c3ccccc3)c3ccccc3)CC2)no1` was tested, and the “hERG current change (%, negative = inhibition) at 10uM” value was -2.67%.
For `CCCCNC(=O)CSc1nc2cc3c(cc2c(=O)n1CCC(=O)NCCc1ccc(OC)c(OC)c1)OCO3`, the “hERG current change (%, negative = inhibition) at 10uM” value was 30.6%.
`Cc1oc2c(CN3CCCCC3)c(O)ccc2c(=O)c1-c1ccc(Br)cc1` was tested, and the “hERG current change (%, negative = inhibition) at 10uM” value was -16.5%.
`CC(=O)Nc1ccc(NC(=O)CN(C)S(=O)(=O)c2ccc3ccccc3c2)cc1` was tested, and the “hERG current change (%, negative = inhibition) at 10uM” value was 17.5%.
With `C=CCNC(=O)CN1CCC(n2nnc3cc(C(F)(F)F)ccc32)CC1` the “hERG current change (%, negative = inhibition) at 10uM” value was -50.7%.
With `O=C(CCc1ccccc1)Nc1ccc(F)cc1F` the “hERG current change (%, negative = inhibition) at 10uM” value was -21.2%.
`CC(Sc1nc(-c2ccc(F)cc2)cs1)C(=O)N1c2ccccc2CC1C` (stereo not drawn) was tested, and the “hERG current change (%, negative = inhibition) at 10uM” value was 12.9%.
With `COc1ccccc1/C=C/C(=O)OCC(=O)Nc1c(C)nn(-c2ccccc2)c1C` the “hERG current change (%, negative = inhibition) at 10uM” value was 0.662%.
`O=C(c1ccc(S(=O)(=O)NCc2ccco2)cc1)N1CCCC1` was tested, and the “hERG current change (%, negative = inhibition) at 10uM” value was 4.6%.
For `O=C(c1ccccc1-n1cccc1)N1N=C(C(F)F)CC1(O)C(F)F` (stereo not drawn), the “hERG current change (%, negative = inhibition) at 10uM” value was -63.2%.
With `COc1ccc(-n2nnnc2SCC(=O)Nc2nnn(C)n2)cc1` the “hERG current change (%, negative = inhibition) at 10uM” value was -0.446%.
In the case of `COCCNC(=O)CN(C(=O)CCC(=O)Nc1ccccn1)c1ccc(F)cc1`, the “hERG current change (%, negative = inhibition) at 10uM” value is reported as 14.3%.
For `CC(=O)c1cccc(NC(=O)c2sc3nc4n(c(=O)c3c2C)CCCCC4)c1`, the “hERG current change (%, negative = inhibition) at 10uM” value was -4.86%.
